Assay results published in patent publication US5760092A, “Allocolchinones and uses thereof” (Brandeis University, priority 1996, dated 1998).
Values joined by “and” are separate entries in the source; they are usually repeats but may differ in a detail not shown here. Equal entries are not always repeated. Where two headings read alike, the source gives them in different places.

Experiments:
[1] = tested on: NCI-H522 non-small cell lung cancer cells; experiment: cells; details: Homo sapiens
MCF7 breast cancer cells [2] = tested on: MCF7 breast cancer cells
KM12 colon cancer cells = experiment: cells; details: Homo sapiens
M14 melanoma cells = experiment: cells; details: Homo sapiens
MCF7 breast cancer cells [3] = experiment: cells; details: Homo sapiens
[4] = tested on: COLO 205 colon cancer cells; details: 0.01 µM
[5] = tested on: HCT-15 colon cancer cells
[6] = tested on: COLO 205 colon cancer cells; experiment: cells; details: Homo sapiens, COLO 205, read-out: Percent Growth
[7] = tested on: NCI-H522 non-small cell lung cancer cells
HT29 colon cancer cells [8] = experiment: cells; details: Homo sapiens
SR leukemia cells = experiment: cells
[9] = tested on: HL-60 (TB) leukemia cells; details: 0.1 µM
SK-MEL-28 melanoma cells = experiment: cells; details: Homo sapiens
[10] = tested on: MDA-MB-231/ATCC breast cancer cells
CCRF-CEM leukemia cells = experiment: cells; details: Homo sapiens
[11] = tested on: DU-145 prostate cancer cells
[12] = tested on: MDA-N breast cancer cells; experiment: cells; details: Homo sapiens
[13] = tested on: NCI-H226 non-small cell lung cancer cells; experiment: cells; details: Homo sapiens
[14] = tested on: MDA-MB-435 breast cancer cells; experiment: cells; details: Homo sapiens
SK-MEL-2 melanoma cells = experiment: cells; details: Homo sapiens
LOX IMVI melanoma cells = details: log10 conc -8.0; 0.01 µM
HT29 colon cancer cells [15] = details: log10 conc -5.0; 10 µM
[16] = tested on: EKVX non-small cell lung cancer cells
[17] = tested on: NCI-H226 non-small cell lung cancer cells
[18] = read-out: Percent Growth, log10 conc -4.0
[19] = read-out: Percent Growth, log10 conc -5.0
[20] = read-out: Percent Growth, log10 conc -9.0
[21] = read-out: Percent Growth, log10 conc -10.0

## COc1cc2c(c(OC)c1OC)-c1ccc(C(C)=O)cc1C(NC(C)=O)CC2 (centres unmarked)
[1]; NCI-H522, read-out: Percent Growth, log10 conc -4.0
  activity at 100 µM: -5%
[1]; NCI-H522, read-out: Percent Growth, log10 conc -5.0
  activity at 10 µM: -8%
[1]; NCI-H522, read-out: Percent Growth, log10 conc -6.0
  activity at 1 µM: 2%
[1]; NCI-H522, read-out: Percent Growth, log10 conc -9.0
  activity at 0.001 µM: 22%
[1]; NCI-H522, read-out: Percent Growth, log10 conc -10.0
  activity at 0.0001 µM: 96%
MCF7 breast cancer cells [2]; log10 conc -6.0, 1 µM
  Percent Growth: 10%
MCF7 breast cancer cells [2]; log10 conc -7.0, 0.1 µM
  Percent Growth: 10%
MCF7 breast cancer cells [2]; log10 conc -8.0, 0.01 µM
  Percent Growth: 10%
KM12 colon cancer cells; KM12, read-out: Percent Growth, log10 conc -4.0
  activity at 100 µM: -5%
KM12 colon cancer cells; KM12, read-out: Percent Growth, log10 conc -5.0
  activity at 10 µM: -20%
KM12 colon cancer cells; KM12, read-out: Percent Growth, log10 conc -9.0
  activity at 0.001 µM: 24%
KM12 colon cancer cells; KM12, read-out: Percent Growth, log10 conc -10.0
  activity at 0.0001 µM: 70%
M14 melanoma cells; M14, read-out: Percent Growth, log10 conc -4.0
  activity at 100 µM: 12%
M14 melanoma cells; M14, read-out: Percent Growth, log10 conc -5.0
  activity at 10 µM: 24%
M14 melanoma cells; M14, read-out: Percent Growth, log10 conc -8.0
  activity at 0.01 µM: 12%
M14 melanoma cells; M14, read-out: Percent Growth, log10 conc -9.0
  activity at 0.001 µM: 7%
M14 melanoma cells; M14, read-out: Percent Growth, log10 conc -10.0
  activity at 0.0001 µM: 55%
MCF7 breast cancer cells [3]; MCF7, read-out: Percent Growth, log10 conc -4.0
  activity at 100 µM: 15%
MCF7 breast cancer cells [3]; MCF7, read-out: Percent Growth, log10 conc -5.0
  activity at 10 µM: 9%
MCF7 breast cancer cells [3]; MCF7, read-out: Percent Growth, log10 conc -6.0
  activity at 1 µM: 11%
MCF7 breast cancer cells [3]; MCF7, read-out: Percent Growth, log10 conc -7.0
  activity at 0.1 µM: 8%
MCF7 breast cancer cells [3]; MCF7, read-out: Percent Growth, log10 conc -8.0
  activity at 0.01 µM: 11%
MCF7 breast cancer cells [3]; MCF7, read-out: Percent Growth, log10 conc -9.0
  activity at 0.001 µM: 14%
MCF7 breast cancer cells [3]; MCF7, read-out: Percent Growth, log10 conc -10.0
  activity at 0.0001 µM: 95%
[4]
  Percent Growth: 55%
[5]; log10 conc -6.0, 1 µM
  Percent Growth: 5%
[5]; log10 conc -8.0, 0.01 µM
  Percent Growth: 50%
K-562 leukemia cells; log10 conc -6.0, 1 µM
  Percent Growth: -5% and 4%
K-562 leukemia cells; log10 conc -7.0, 0.1 µM
  Percent Growth: 4%
K-562 leukemia cells; log10 conc -8.0, 0.01 µM
  Percent Growth: 6%
[6]
  activity at 10 µM: 0%
  activity at 100 µM: 3%
[7]; log10 conc -6.0, 1 µM
  Percent Growth: 1%
[7]; log10 conc -7.0, 0.1 µM
  Percent Growth: -3% and 0%
[7]; log10 conc -8.0
  Percent Growth: 16%
HT29 colon cancer cells [8]; HT-29, read-out: Percent Growth, log10 conc -4.0
  activity at 100 µM: -45%
HT29 colon cancer cells [8]; HT-29, read-out: Percent Growth, log10 conc -5.0
  activity at 10 µM: -44%
HT29 colon cancer cells [8]; HT-29, read-out: Percent Growth, log10 conc -7.0
  activity at 0.1 µM: -44%
HT29 colon cancer cells [8]; HT-29, read-out: Percent Growth, log10 conc -8.0
  activity at 0.01 µM: -35%
HT29 colon cancer cells [8]; HT-29, read-out: Percent Growth, log10 conc -9.0
  activity at 0.001 µM: -32%
HT29 colon cancer cells [8]; HT-29, read-out: Percent Growth, log10 conc -10.0
  activity at 0.0001 µM: 109%
SR leukemia cells; [18]
  activity at 100 µM: 11%
SR leukemia cells; [19]
  activity at 10 µM: 19%
SR leukemia cells; [20]
  activity at 0.001 µM: -39%
SR leukemia cells; [21]
  activity at 0.0001 µM: 28%
[9]
  Percent Growth: 7%
SK-MEL-28 melanoma cells; SK-MEL-28, read-out: Percent Growth, log10 conc -4.0
  activity at 100 µM: 50%
SK-MEL-28 melanoma cells; SK-MEL-28, read-out: Percent Growth, log10 conc -5.0
  activity at 10 µM: 46%
SK-MEL-28 melanoma cells; SK-MEL-28, read-out: Percent Growth, log10 conc -6.0
  activity at 1 µM: 57%
SK-MEL-28 melanoma cells; SK-MEL-28, read-out: Percent Growth, log10 conc -7.0
  activity at 0.1 µM: 53%
SK-MEL-28 melanoma cells; SK-MEL-28, read-out: Percent Growth, log10 conc -8.0
  activity at 0.01 µM: 52%
SK-MEL-28 melanoma cells; SK-MEL-28, read-out: Percent Growth, log10 conc -9.0
  activity at 0.001 µM: 39%
SK-MEL-28 melanoma cells; SK-MEL-28, read-out: Percent Growth, log10 conc -10.0
  activity at 0.0001 µM: 39%
[10]; log10 conc -6.0, 1 µM
  Percent Growth: -6%
CCRF-CEM leukemia cells; [18]
  activity at 100 µM: -15%
CCRF-CEM leukemia cells; [19]
  activity at 10 µM: 3%
CCRF-CEM leukemia cells; [20]
  activity at 0.001 µM: -15%
CCRF-CEM leukemia cells; [21]
  activity at 0.0001 µM: 63%
[11]; log10 conc -8.0
  Percent Growth: 9%
[12]; [18]
  activity at 100 µM: 1%
[12]; [19]
  activity at 10 µM: -2%
[12]; [20]
  activity at 0.001 µM: -54%
[12]; [21]
  activity at 0.0001 µM: 75%
[13]; NCI-H226, read-out: Percent Growth, log10 conc -4.0
  activity at 100 µM: 16%
[13]; NCI-H226, read-out: Percent Growth, log10 conc -5.0
  activity at 10 µM: 15%
[13]; NCI-H226, read-out: Percent Growth, log10 conc -9.0
  activity at 0.001 µM: 47%
[13]; NCI-H226, read-out: Percent Growth, log10 conc -10.0
  activity at 0.0001 µM: 103%
[14]; MDA-MB-435, read-out: Percent Growth, log10 conc -4.0
  activity at 100 µM: -35%
[14]; MDA-MB-435, read-out: Percent Growth, log10 conc -5.0
  activity at 10 µM: -42%
[14]; MDA-MB-435, read-out: Percent Growth, log10 conc -9.0
  activity at 0.001 µM: -46%
[14]; MDA-MB-435, read-out: Percent Growth, log10 conc -10.0
  activity at 0.0001 µM: 66%
SK-MEL-2 melanoma cells; SK-MEL-2, read-out: Percent Growth, log10 conc -4.0
  activity at 100 µM: 27%
SK-MEL-2 melanoma cells; SK-MEL-2, read-out: Percent Growth, log10 conc -5.0
  activity at 10 µM: 26%
SK-MEL-2 melanoma cells; SK-MEL-2, read-out: Percent Growth, log10 conc -6.0
  activity at 1 µM: 33%
SK-MEL-2 melanoma cells; SK-MEL-2, read-out: Percent Growth, log10 conc -7.0
  activity at 0.1 µM: 39%
SK-MEL-2 melanoma cells; SK-MEL-2, read-out: Percent Growth, log10 conc -8.0
  activity at 0.01 µM: 49%
SK-MEL-2 melanoma cells; SK-MEL-2, read-out: Percent Growth, log10 conc -9.0
  activity at 0.001 µM: 42%
SK-MEL-2 melanoma cells; SK-MEL-2, read-out: Percent Growth, log10 conc -10.0
  activity at 0.0001 µM: 92%

## CCCC(=O)NC1CCc2cc(OC)c(OC)c(OC)c2-c2ccc(C(C)=O)cc21 (centres unmarked)
LOX IMVI melanoma cells
  Percent Growth: 24%
HT29 colon cancer cells [15]
  Percent Growth: -3% and -4%
[7]; log10 conc -6.0, 1 µM
  Percent Growth: -1%
[7]; log10 conc -7.0, 0.1 µM
  Percent Growth: -51% and -47%
[7]; log10 conc -8.0
  Percent Growth: -46%
[7]; log10 conc -8.0, 0.01 µM
  Percent Growth: -45%
[10]; log10 conc -4.0, 100 µM
  Percent Growth: 18%
[10]; log10 conc -5.0, 10 µM
  Percent Growth: 2%
[10]; log10 conc -6.0, 1 µM
  Percent Growth: 0% and -1%
[10]; log10 conc -7.0, 0.1 µM
  Percent Growth: 0% and -10%
[16]; log10 conc -4.0, 100 µM
  Percent Growth: 16%
[16]; log10 conc -5.0, 10 µM
  Percent Growth: 40%
[16]; log10 conc -6.0, 1 µM
  Percent Growth: 34%
[16]; log10 conc -7.0, 0.1 µM
  Percent Growth: 30%
[16]; log10 conc -8.0, 0.01 µM
  Percent Growth: 30%
[11]; log10 conc -4.0, 100 µM
  Percent Growth: 3%
[11]; log10 conc -5.0
  Percent Growth: 3%
[11]; log10 conc -6.0, 1 µM
  Percent Growth: -7% and 1%
[11]; log10 conc -8.0, 0.01 µM
  Percent Growth: 3%
[17]; log10 conc -4.0, 100 µM
  Percent Growth: -15% and -7%
[17]; log10 conc -5.0, 10 µM
  Percent Growth: -22% and -20%
[17]; log10 conc -6.0, 1 µM
  Percent Growth: -18% and -23%
[17]; log10 conc -7.0, 0.1 µM
  Percent Growth: -18% and -21%
